{"source": "PubChem BioAssay AID651820", "about": "(National Center for Advancing Translational Sciences (NCATS), 2012)", "note": "The campaign covered roughly 340,000 compounds. About 12,000 (3.5%) were called active. Inconclusive results, whose numbers are uncertain, are shown with a selection of clear calls. Calls come from the whole dose curve; as a rule, active = well fitted inhibition curve with a large enough effect; inconclusive = small, poorly fitted or top-dose-only effect, or another doubt; inactive = no such curve, though single readings can be large or run the other way. No potency is given beside an inconclusive call; the fits are too rough. % is set by controls: 0 for no effect and ±100 for the full control effect; potency is the fitted concentration of half-maximal effect; tags give direction and shape of the fitted curve.", "data": [{"experiment": "qHTS Assay for Inhibitors of Hepatitis C Virus (HCV)", "settings": "Huh7.5.1 HCVcc-Cre (HCVcc is cell-culture hepatitis C virus) infection, luciferase reporter, 44 h; activity change, negative = inhibition: at 41.8 µM (top of the series)", "summary_of_the_method": "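Whole-lifecycle infectious HCVcc-Cre system; cells 1,000/well, compound then virus (~0.5 moi) added 4 h after plating, 44 h culture. Luciferase read 15 sec following 15 min substrate incubation, room temp.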", "values": [{"smiles": "N#Cc1ccccc1S(=O)(=O)N1CCN(c2nc(-c3cccnc3)nc3ccccc23)CC1", "Potency": "inconclusive [inhibitor, partial curve]"}, {"smiles": "C/C=C/c1ccc(OCC(=O)Nc2cc(C(F)(F)F)ccc2N2CCOCC2)c(OC)c1", "Potency": "inconclusive [inhibitor, single point]"}, {"smiles": "O=C(NNc1ccc(C2CCCCC2)cc1)C(O)(c1ccccc1)c1cccs1", "note": "(configuration not stated)", "Potency": "inconclusive [inhibitor, single point]"}, {"smiles": "c1ccc(C2(CN3CCNC[C@@H]3CC3CCCCC3)CC2)cc1", "Potency": "active: 22.4 µM"}, {"smiles": "COc1ccc(CCNC(=O)CCOc2ccc(C(C)(C)C)cc2)cc1OC", "activity change, negative = inhibition": "inactive: -21.1%"}, {"smiles": "COc1ccc(N2CCN(CC(O)c3c[nH]c4ccc(OC)cc34)CC2C)cc1", "note": "(configuration not stated)", "Potency": "inconclusive [inhibitor, single point]"}, {"smiles": "COc1ccc(CC(=O)NNC2=Nc3cccc4cccc2c34)cc1OC", "activity change, negative = inhibition": "inactive: -17%"}, {"smiles": "CCOC(=O)C(=CNc1ccc(O)c(C(=O)OC)c1)C(=O)OCC", "Potency": "inconclusive [inhibitor, single point]"}, {"smiles": "Cc1ccc(NC(=O)CNc2cccc(Br)c2)cc1S(=O)(=O)N1CCOCC1", "Potency": "inconclusive [inhibitor, partial curve]"}, {"smiles": "COc1ccc(/C=N/NC(=O)c2ccccc2)cc1OS(=O)(=O)c1ccccc1", "Potency": "inconclusive [inhibitor, partial curve]"}, {"smiles": "COC(=O)c1ccc(NC(=O)CN(C)S(=O)(=O)c2ccc(OC)c(C)c2)cc1", "Potency": "inconclusive [inhibitor, partial curve, poor fit]"}, {"smiles": "Clc1ccccc1-c1nnc(CNC2CC2)o1", "activity change, negative = inhibition": "inactive: 12.8%"}, {"smiles": "CCOc1[nH]n(-c2ccc(Cl)cc2)c(=O)c1C=Nc1ccc(O)cc1", "Potency": "inconclusive [inhibitor, single point]"}, {"smiles": "CC(=O)N1CCc2cc(S(=O)(=O)NCCC(=O)NCCc3ccc(C)cc3)ccc21", "Potency": "active: 10 µM"}, {"smiles": "Cc1cccc2cc(C3CC(c4cccs4)=NN3S(C)(=O)=O)c(Cl)nc12", "note": "(configuration not stated)", "Potency": "inconclusive [inhibitor, partial curve]"}, {"smiles": "O=C(O)Cn1c(-c2ccccc2)nc2ccccc21", "activity change, negative = inhibition": "inactive: 2.71%"}, {"smiles": "O=C(CCl)Nc1ccc(N=Nc2ccccc2)cc1", "activity change, negative = inhibition": "inactive: -26.9%"}, {"smiles": "COc1ccc(NC(=O)CC2C(=O)N(C)C(=S)N2CCc2ccccc2F)cc1", "note": "(configuration not stated)", "Potency": "inconclusive [inhibitor, single point]"}, {"smiles": "CCN(CC)CCN1C(=O)C(O)=C(C(C)=O)C1c1ccccc1[N+](=O)[O-]", "note": "(configuration not stated)", "activity change, negative = inhibition": "inactive: 6.86%"}, {"smiles": "CC(C)(C)OC(=O)N1CCCC(C(=O)Nc2cccc(C(=O)NCCCc3ccccc3)c2)C1", "note": "(configuration not stated)", "Potency": "inconclusive [inhibitor, partial curve]"}, {"smiles": "Cc1ccc(C2c3c(-c4ccccc4O)n[nH]c3C(=O)N2Cc2ccncc2)cc1", "note": "(configuration not stated)", "Potency": "inconclusive [inhibitor, single point]"}, {"smiles": "COc1ccc(/C=C2/SC(=S)N(CCCC(=O)Nc3ccc(O)cc3)C2=O)cc1OC", "Potency": "inconclusive [inhibitor, full curve]"}, {"smiles": "COc1ccccc1NC(=O)COC(=O)CC(C)(C)CC1=NS(=O)(=O)c2ccccc2N1", "Potency": "inconclusive [inhibitor, partial curve]"}, {"smiles": "COc1ccc(NC(=O)Nc2nnc(Cc3ccccc3)s2)cc1", "activity change, negative = inhibition": "inactive: -13.7%"}, {"smiles": "CC(C)(CCC(=S)N1CCOCC1)c1ccccc1", "activity change, negative = inhibition": "inactive: 2.12%"}, {"smiles": "CCC1CSC(Nc2ccc(C(=O)/C=C/c3cccc(C)c3)cc2)=N1", "note": "(configuration not stated)", "Potency": "inconclusive [inhibitor, single point]"}, {"smiles": "C=CCOc1ccccc1OCC(O)CNC(C)C", "note": "(configuration not stated)", "Potency": "active: 1 µM"}, {"smiles": "Cc1cc(C)c(S(=O)(=O)N(CC(=O)NCc2cccnc2)C2CCCCC2)c(C)c1", "Potency": "inconclusive [inhibitor, single point]"}, {"smiles": "O=C(NCC1CCCO1)c1ccc2c(c1)N(Cc1ccccc1)C(=O)CS2", "note": "(configuration not stated)", "activity change, negative = inhibition": "inactive: 5.08%"}, {"smiles": "Cc1ccc(SCC(=O)N(C)CC(=O)Nc2cccc(F)c2)cc1", "Potency": "inconclusive [inhibitor, single point]"}, {"smiles": "O=C(OCC(=O)N1CCOCC1)c1ccccc1OCc1ccc(Cl)cc1", "activity change, negative = inhibition": "inactive: 3.8%"}, {"smiles": "COc1cccc(-c2cc(C(=O)N3CCN(c4ncccn4)CC3)c3ccccc3n2)c1", "Potency": "inconclusive [inhibitor, single point]"}, {"smiles": "Cc1cccc2cc(C#N)c(SCCN3CCCCC3)nc12", "Potency": "inconclusive [inhibitor, single point]"}, {"smiles": "OCC[C@H]1C[C@H](O)[C@@H](O)[C@@]2(CCc3ccccc3O2)O1", "activity change, negative = inhibition": "inactive: 27.1%"}, {"smiles": "O=C(CN1C(=O)COc2ccccc21)N1CCOCC1", "activity change, negative = inhibition": "inactive: 21.7%"}, {"smiles": "CCOc1ccc(N=C/C=C/c2ccccc2)c(O)c1", "activity change, negative = inhibition": "inactive: 0.382%"}, {"smiles": "Oc1c(Cl)cc(Cl)cc1/C=N/Nc1ncc(Br)cn1", "Potency": "active: 2.24 µM"}, {"smiles": "O=C(Nc1ccccc1)c1ccccc1NS(=O)(=O)c1ccc(Cl)s1", "Potency": "inconclusive [inhibitor, single point]"}, {"smiles": "C[N+](C)(C)c1ccc(/C=N/Nc2nc(Cl)c(C#N)c(Cl)c2Cl)cc1", "activity change, negative = inhibition": "inactive: 30.7%"}, {"smiles": "CCOc1cc(/C=C/c2cc(C(F)(F)F)[nH]c(=O)n2)ccc1O", "activity change, negative = inhibition": "inactive: -10%"}, {"smiles": "CC(=O)N1CCc2cc(S(=O)(=O)N3c4ccccc4CC3C)ccc21", "note": "(configuration not stated)", "Potency": "inconclusive [inhibitor, partial curve]"}, {"smiles": "CC(C)C(=O)NC(c1cccs1)c1cc([N+](=O)[O-])c2cccnc2c1O", "note": "(configuration not stated)", "Potency": "inconclusive [inhibitor, full curve]"}, {"smiles": "COc1ccc(C(=O)CCc2ccccc2)c(O)c1", "Potency": "inconclusive [inhibitor, single point]"}, {"smiles": "Cc1cc(C(=O)Nc2cc(C(C)(C)C)on2)c(C)o1", "activity change, negative = inhibition": "inactive: -17.1%"}, {"smiles": "COc1ccccc1Nc1nc(NCC(C)C)nc(N)c1[N+](=O)[O-]", "Potency": "inconclusive [inhibitor, partial curve, poor fit]"}, {"smiles": "CCOc1cccc(C(=O)Nc2cccc(-c3nc4ncccc4o3)c2C)c1", "Potency": "inconclusive [inhibitor, single point]"}, {"smiles": "O=C(CCNC(=O)c1ccc(Cl)cc1)Nc1ccccc1N1CCCCC1", "Potency": "inconclusive [inhibitor, single point]"}]}]}
